Assay results: FireProtDB (doi:10.1126/science.aai7825)

Details: Escherichia coli (strain K12); pH 7.5; Thermal; Intensity; HEPES 20mM; transition: 2

For “Ribose-phosphate pyrophosphokinase wild type (sequence left out)”, which Tm is on record?
Its Tm is 43.9 °C.
